# Assay results taken from the supplement of paper PMC4967469.
# Legend:
# Assay in all cases: Viability of human cancer cell lines after 72 h of drug (GDSC screen)
# Phenformin = compound: N=C(N)NC(=N)NCCc1ccccc1 [Phenformin]; conditions: top dose 4000 µM; top dose inferred
# Method: (§1)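 Human cancer cell lines in 384-well plates, medium with 10% serum, drug for 72 h over a 256-fold dose range (nine 2-fold or five 4-fold steps up to the top dose). Adherent lines were fixed and stained with the nucleic acid dye Syto60, suspension lines read with resazurin; signal relative to control wells, capped at 0 and 100%. One two-parameter sigmoid per drug and line, fitted in a mixed model over all curves with the slope shared within a line.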
# Gefitinib = compound: COc1cc2ncnc(Nc3ccc(F)c(Cl)c3)c2cc1OCCCN1CCOCC1 [Gefitinib]; conditions: top dose 0.5 µM
# Method: as §1
# AG-014699 = compound: CNCc1ccc(-c2[nH]c3cc(F)cc4c3c2CCNC4=O)cc1 [AG-014699]; conditions: top dose 5 µM; top dose inferred
# Method: as §1
# WHI-P97 = compound: COc1cc2ncnc(Nc3cc(Br)c(O)c(Br)c3)c2cc1OC [WHI-P97]; conditions: top dose 10.24 µM; top dose inferred
# Method: as §1
# EHT 1864 = compound: O=c1cc(CN2CCOCC2)occ1OCCCCCSc1ccnc2cc(C(F)(F)F)ccc12 [EHT 1864]; conditions: top dose 10 µM; top dose inferred
# Method: as §1
# QL-XI-92 = compound: C=CC(=O)Nc1cc(NC(=O)c2ccc(C)c(NC(=O)c3ccno3)c2)cc(C(F)(F)F)c1 [QL-XI-92]; conditions: top dose 10.24 µM; top dose inferred
# Method: as §1
# XL-184 = compound: COc1cc2nccc(Oc3ccc(NC(=O)C4(C(=O)Nc5ccc(F)cc5)CC4)cc3)c2cc1OC [XL-184]; conditions: top dose 5.12 µM; top dose inferred
# Method: as §1
# NU-7441 = compound: O=c1cc(N2CCOCC2)oc2c(-c3cccc4c3sc3ccccc34)cccc12 [NU-7441]; conditions: top dose 2 µM; top dose inferred
# Method: as §1
Cell Line,AUC (Phenformin),IC50 (Phenformin) [µM],AUC (Gefitinib),IC50 (Gefitinib) [µM],AUC (AG-014699),IC50 (AG-014699) [µM],AUC (WHI-P97),IC50 (WHI-P97) [µM],AUC (EHT 1864),IC50 (EHT 1864) [µM],AUC (QL-XI-92),IC50 (QL-XI-92) [µM],AUC (XL-184),IC50 (XL-184) [µM],AUC (NU-7441),IC50 (NU-7441) [µM]
"D-566MG (glioma, adherent)",0.905,> 4000,0.958,> 0.5,0.939,> 5,0.969,> 10.2,0.952,> 10,0.939,> 10.2,0.897,> 5.12,0.957,> 2
"DOV13 (ovary, adherent)",0.964,> 4000,0.915,> 0.5,0.967,> 5,0.908,> 10.2,0.927,> 10,0.983,> 10.2,0.938,> 5.12,0.923,> 2
"EMC-BAC-2 (lung adenocarcinoma, adherent)",0.97,> 4000,0.979,> 0.5,0.982,> 5,0.953,> 10.2,0.967,> 10,0.908,> 10.2,0.948,> 5.12,0.956,> 2
"ESO26 (oesophagus, adherent)",0.983,> 4000,0.909,> 0.5,0.989,> 5,0.93,> 10.2,0.981,> 10,0.912,> 10.2,0.923,> 5.12,0.985,> 2
"FLO-1 (oesophagus, adherent)",0.927,> 4000,0.969,> 0.5,0.959,> 5,0.903,> 10.2,0.901,> 10,0.902,> 10.2,0.863,> 5.12,0.909,> 2
"Hey (ovary, adherent)",0.972,> 4000,0.982,> 0.5,0.924,> 5,0.98,> 10.2,0.942,> 10,0.933,> 10.2,0.955,> 5.12,0.948,> 2
"JHOS-2 (ovary, adherent)",0.978,> 4000,0.862,> 0.5,0.965,> 5,0.854,> 10.2,0.975,> 10,0.931,> 10.2,0.921,> 5.12,0.909,> 2
"JHOS-3 (ovary, adherent)",0.967,> 4000,0.973,> 0.5,0.974,> 5,0.899,> 10.2,0.963,> 10,0.96,> 10.2,0.944,> 5.12,0.979,> 2
"KMS-11 (myeloma, suspension)",0.991,> 4000,0.949,> 0.5,0.99,> 5,0.951,> 10.2,0.948,> 10,0.94,> 10.2,0.905,> 5.12,0.967,> 2
"KYAE-1 (oesophagus, suspension)",0.971,> 4000,0.645,0.0826,0.935,> 5,0.883,> 10.2,0.983,> 10,0.809,6.05,0.947,> 5.12,0.895,> 2
"MOLT-13 (T-cell lymphoblastic leukaemia, suspension)",0.95,> 4000,0.842,0.29,0.973,> 5,0.952,> 10.2,0.954,> 10,0.703,2.19,0.944,> 5.12,0.976,> 2
"NCC021 (kidney, adherent)",0.979,> 4000,0.984,> 0.5,0.983,> 5,0.974,> 10.2,0.966,> 10,0.926,> 10.2,0.871,> 5.12,0.951,> 2
"OACM5-1 (oesophagus, semi-adherent)",0.969,> 4000,0.958,> 0.5,0.986,> 5,0.77,4.38,0.976,> 10,0.876,> 10.2,0.849,4.59,0.969,> 2
"OACp4C (oesophagus, adherent)",0.906,> 4000,0.935,> 0.5,0.975,> 5,0.6,1.28,0.956,> 10,0.904,> 10.2,0.91,> 5.12,0.948,> 2
"OC-314 (ovary, adherent)",0.926,> 4000,0.978,> 0.5,0.945,> 5,0.95,> 10.2,0.958,> 10,0.97,> 10.2,0.976,> 5.12,0.953,> 2
"OV-7 (ovary, adherent)",0.97,> 4000,0.868,> 0.5,0.963,> 5,0.902,> 10.2,0.965,> 10,0.853,> 10.2,0.843,> 5.12,0.879,> 2
"OV-17R (ovary, adherent)",0.945,> 4000,0.981,> 0.5,0.98,> 5,0.975,> 10.2,0.965,> 10,0.959,> 10.2,0.881,> 5.12,0.956,> 2
"OV-56 (ovary, adherent)",0.989,> 4000,0.986,> 0.5,0.976,> 5,0.968,> 10.2,0.985,> 10,0.972,> 10.2,0.929,> 5.12,0.944,> 2
"OVCA420 (ovary, adherent)",0.982,> 4000,0.833,0.488,0.982,> 5,0.905,> 10.2,0.965,> 10,0.98,> 10.2,0.881,> 5.12,0.961,> 2
"OVCA433 (ovary, adherent)",0.976,> 4000,0.948,> 0.5,0.976,> 5,0.964,> 10.2,0.959,> 10,0.979,> 10.2,0.932,> 5.12,0.951,> 2
"OVK-18 (ovary, adherent)",0.983,> 4000,0.965,> 0.5,0.953,> 5,0.911,> 10.2,0.922,> 10,0.963,> 10.2,0.985,> 5.12,0.907,> 2
"PEO1 (ovary, adherent)",0.937,> 4000,0.981,> 0.5,0.987,> 5,0.986,> 10.2,0.986,> 10,0.985,> 10.2,0.918,> 5.12,0.971,> 2
"QGP-1 (pancreas, adherent)",0.65,845,0.979,> 0.5,0.972,> 5,0.97,> 10.2,0.979,> 10,0.968,> 10.2,0.921,> 5.12,0.965,> 2
"RCC-AB (kidney, adherent)",0.815,3080,0.981,> 0.5,0.979,> 5,0.893,> 10.2,0.925,> 10,0.863,> 10.2,0.882,> 5.12,0.921,> 2
"RCC-ER (kidney, adherent)",0.948,> 4000,0.974,> 0.5,0.986,> 5,0.985,> 10.2,0.979,> 10,0.943,> 10.2,0.985,> 5.12,0.932,> 2
"RCC-FG2 (kidney, adherent)",0.959,> 4000,0.92,> 0.5,0.977,> 5,0.964,> 10.2,0.935,> 10,0.944,> 10.2,0.93,> 5.12,0.837,1.89
"RCC-JF (kidney, adherent)",0.917,> 4000,0.818,0.327,0.931,> 5,0.872,> 10.2,0.951,> 10,0.866,> 10.2,0.942,> 5.12,0.915,> 2
"RCC-JW (kidney, adherent)",0.97,> 4000,0.948,> 0.5,0.985,> 5,0.946,> 10.2,0.962,> 10,0.81,5.57,0.941,> 5.12,0.925,> 2
"RCC-MF (kidney, adherent)",0.973,> 4000,0.859,> 0.5,0.98,> 5,0.864,> 10.2,0.878,> 10,0.82,8.29,0.929,> 5.12,0.89,> 2

# By IC50 is meant the dose at which the fit gives 50% viability; where the fit passes the top or lowest dose, that dose stands as a limit. For AUC the same curve is integrated over the 256-fold range of doses and scaled to a fraction: 1 means no effect, lower means more sensitive. For some assays here: An inferred top dose is not printed in the source and was worked back from the curve model.
